Hit rate of the full screen: of about 390,000 compounds, about 930 (0.24%) were called active. Inconclusive means that the source gave no clear call. Such entries were picked first, then a sample of the others. The call rests on the fitted dose curve; in most records, active means well fitted activation curve with a large enough effect; inconclusive means small, poorly fitted or top-dose-only effect; inactive means no such curve, though single readings can be large or run the other way. A potency beside an inconclusive call is a rough fit, not a confirmed value.
experiment: qHTS for Suppressors of FUS Proteinopathy: Primary screen using FUS-linked yeast assay; further: nearly all actives have a fitted effect of over 55% in size;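 on growth rescue (activation): plate controls were DMSO vehicle for no effect and reference control for full effect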; conditions: S. cerevisiae FUS-expressing, OD600, 24 h; Potency: growth rescue; growth rescue (activation): at 76.6 µM (top of the series)
Method in brief: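 FUS-expressing yeast, raffinose-pregrown, induced in 2% galactose minimal medium at OD 0.005; compounds in a dilution series, 24hr at 30C. Growth restoration read as absorbance at 600 nm. CP55940 positive control, DMSO negative.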
Potency means the concentration at half of the fitted maximal effect; tags describe the fitted curve by direction and shape.

SMILES	Potency	growth rescue (activation)
CCCCc1ccc(NC(=O)CN2C(=O)C3CCCCC3C2=O)cc1 (stereo not drawn)	inconclusive: 35.5 µM [activator, single point]	
Cc1cc(-c2ccc(C)c(S(=O)(=O)N(C)c3ccc(C)c(C)c3)c2)on1	inactive	
COc1ccc(OC)c(NC(=O)CN2C(=O)c3ccccc3Sc3ccc(C(=O)N4CCCC4)cc32)c1	inconclusive: 35.5 µM [activator, single point]	
COc1ccc(C(=O)/C=C/c2ccc(OC)c(COc3ccccc3F)c2)cc1	inconclusive: 5.62 µM [activator, single point]	
CCCC[C@H](CN(N=O)[C@@H](Cc1ccccc1)CN(C)N=O)N(CCc1ccccc1)N=O	inconclusive: 14.1 µM [activator, partial curve]	
O=C1N(Cc2ccccc2)c2ccccc2C12CCCc1sc(CCc3ccccc3)nc12 (stereo not drawn)	inactive	
CCOC(=O)C(Sc1nnc2c3ccccc3n(CC)c2n1)C(=O)OCC	inconclusive: 31.6 µM [activator, partial curve, poor fit]	
CCC(C)c1ccc2oc(-c3ccc(NC(=O)c4ncn[nH]4)cc3)nc2c1 (stereo not drawn)	inconclusive: 39.8 µM [activator, partial curve, poor fit]	
COc1ccc(CC(=O)NCc2ccc3c(c2)CCN3C(=O)c2ccc(Cl)cc2)cc1OC	inconclusive: 8.91 µM [activator, single point]	
C=CC[C@@H](CC(=O)N(CCO)Cc1ccccc1)C(=O)N[C@H](COC(=O)[C@@H](CC=C)Cc1ccc(F)cc1)Cc1ccccc1	inconclusive: 25.1 µM [activator, single point]	
CCS(=O)(=O)c1ncc(Cl)c(C(=O)N2CCN(c3cccc(Cl)c3)CC2)n1	inactive	
COC(=O)[C@]12C[C@H](CC(=O)NCC34CC5CC(CC(C5)C3)C4)C(=O)N(Cc3ccco3)C1=C[C@H](C(C)(C)C)O[C@@H]2C	inconclusive: 10 µM [activator, partial curve]	
O=C([C@@H]1Cc2ccccc2CN1)N1CCN(Cc2ccccc2)CC1	inconclusive: 22.4 µM [activator, partial curve]	
C#CCOCCOCCOCCNc1nc(N2CCOCC2)nc(N2CCN(C(=O)CCCCCCCCCCNC(=O)[C@@H]([C@H](C)O)n3cc(C)nn3)CC2)n1	inconclusive: 17.8 µM [activator, partial curve, poor fit]	
Cc1noc(/C=C/N(C)C)c1S(=O)(=O)N1CCCC(C(=O)Nc2ccc(F)cc2F)C1 (stereo not drawn)	inconclusive: 17.8 µM [activator, partial curve, poor fit]	
CCOC(=O)C1=C(CC)Nc2ccccc2N=C1NC(=O)c1cc(S(=O)(=O)N2CCOCC2)ccc1C	inconclusive: 28.2 µM [activator, single point]	
CC(C)(C)OC(=O)N1CCC(c2c(C(=O)NCc3cccs3)cnn2-c2ccc(F)cc2F)CC1	inconclusive: 35.5 µM [activator, partial curve, poor fit]	
COc1ccc(/C=C2\Sc3ccc(C(=O)NC4CC4)cc3N(C)C2=O)cc1OC	inconclusive: 44.7 µM [activator, single point]	
O=C(CNC(=O)c1ccccc1)N=Nc1c(O)[nH]c2ccc(Br)cc12	inactive	

SMILES	Potency	growth rescue (activation)
Cc1ccc(C)c(Nc2c([N+](=O)[O-])c(=O)oc3ccccc23)c1	inactive	
Cc1cccc(-c2c3c(=O)n(C)c(=O)n(C)c3cn2-c2cc(N)c(Cl)cc2Cl)c1	inconclusive: 28.2 µM [activator, single point]	
Cc1ccc(C(=O)N2CCN(c3ccc(C(F)(F)F)cn3)CC2)c(C)c1	inconclusive: 28.2 µM [activator, single point]	
Cc1ccc(-n2c(SC/C=C/c3ccccc3)nnc2-c2ccco2)cc1	inconclusive: 31.6 µM [activator, single point]	
Cc1ccc(NC(=O)c2cc(-c3ccc(C)o3)nc3ccccc23)cc1	inconclusive: 39.8 µM [activator, single point]	
C/C(=N/NC(=O)c1ccc(-c2ccccc2)cc1)c1cc(O)cc(O)c1	inconclusive: 28.2 µM [activator, partial curve, poor fit]	
CCN(CC)C(=O)c1sc(NC(=O)C(C)Sc2nc(-c3ccccc3)cc(C(F)(F)F)n2)c(C(=O)OC)c1C (stereo not drawn)	inconclusive: 50.1 µM [activator, single point]	
CCOC(=O)c1c(-c2ccccc2)csc1NC(=O)c1nc(S(=O)(=O)CC)ncc1Cl	inactive	
CN(C)S(=O)(=O)c1cccc(C(=O)N/N=C\c2ccnc3ccccc23)c1	inactive	
COc1cc(OC)cc(C(=O)OCn2nnc3ccccc3c2=O)c1	inactive	
O=C(Nc1ccc(Cl)cc1)c1cc2nc(-c3ccco3)cc(C(F)(F)F)n2n1	inactive	
Nc1nc2ccccc2n1CCOc1ccc(Br)cc1	inconclusive: 3.55 µM [activator, single point]	
Cc1c(Cl)cccc1NC(=O)Cn1c(=O)nc(-c2ccccc2)c2ccccc21	inactive	
CCc1ccc(NC(=O)CCc2c(C)nn(-c3ccc(N4CCCCC4)nn3)c2C)cc1	inconclusive: 15.8 µM [activator, partial curve, poor fit]	
Cn1c(SCc2nnc(-c3ccc(F)cc3)o2)nnc1C1COc2ccccc2O1 (stereo not drawn)	inconclusive: 50.1 µM [activator, single point]	
CC(C)c1ccc2c(c1)C(N1CCNCC1)Cc1ccc(F)cc1S2 (stereo not drawn)	inconclusive: 50.1 µM [activator, single point]	
Clc1ccc(-c2csc(NNC3=NCCCCC3)n2)cc1		inconclusive: 75.9% [activator]
CCC[C@H]1[C@@H](OC(=O)NCc2ccc(C(F)(F)F)cc2)CC[C@@]23CCCN2C(=O)CCC[C@@H]13	inconclusive: 17.8 µM [activator, single point]	
Cc1c(Cl)cccc1-n1c(SCC(=O)NCc2ccccc2Cl)nnc1-c1ccncc1	inconclusive: 31.6 µM [activator, partial curve, poor fit]	

Reference: PubChem BioAssay AID1347120 (National Center for Advancing Translational Sciences (NCATS), 2019)
